# Data published in the supplement of paper PMC11417369.
# Some of the results follow.
# System: PfSIP2 AP2 domain 1 (GST-tagged)
# Test: gcPBM binding intensity (ln(normalized median fluorescence intensity)); higher = stronger DNA binding
# Summary of the method: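 An Agilent 4 × 180k array of primer-extended double-stranded 36-bp intergenic genomic probes, with negative controls, was incubated for 1 h with GST-tagged P. falciparum DNA-binding domains expressed in E. coli. Alexa488 anti-GST antibody detected bound protein, scanned at 488 nm. Binding intensity is the highest Masliner-normalised natural-log median intensity across replicate spots of either probe orientation.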
row,Sequence,gcPBM binding intensity (ln)
1,TTTATATACTATTCAAAGTGATAAATAATATATGAA [TGCATGCA_negctrl_site352],6.79
2,AAAAAAAAAAAACATACACACAATAAAATAGGGGTA [CACACA_site2399],6.89
3,ATTTATTTATTAAGATGTACTTATTAAAAATAATAA [XGTACX_site7392],7.05
4,CACATACAGACATACACACACATATAGATTAATATA [CACACA_site6399],7.24
5,TTAGGGTTTTATAAATGTACTTATTTATACATCCTC [XGTACX_site5769],6.85
6,AATAAGAAATGTAAATGTACATAAAAAAAAGTATAT [XGTACX_site3573],7.33
7,TATATATATATATTATGTACATATATATTAAATATG [XGTACX_site2494],9.08
8,ATTTTTTAACATATCATACACACAACCACTTTTTAT [CACACA_site1961],7.27
9,TAAACATTTTTGCACGCACACAAAAAAAAAATAAAA [CACACA_site167],7.71
10,ATTAAATGCAGTTCGGTGCATTAAGGTTATGATGAA [GTGCAC_site9883],9.01
11,CATTCATTTATTAATTGTACTTTTAAGGTTAAATAA [XGTACX_site5838],7.02
12,ATTATATATACACGCACACACACTTATATATATATA [CACACA_site9093],9.06
13,TTTTTAACATATCATACACACAACAACTTTTTATAG [CACACA_site1962],7.01
14,CAAGCCCTTCTGCTTACACACAGTAATTATTGTGTA [CACACA_site2953],6.75
15,TAAAAATATATACATACATGCATACATATATATGTA [TGCATGCA_site774],6.92
16,TAATTTATTATATTTTGTACGTAAAATTATTATTGT [XGTACX_site8155],7.43
17,TAGGAAAAGAAAAGCACACACATAAATAAATATATA [CACACA_site504],6.87
18,AATATTTATTTTACATGTACTTATTTTTCTTTTAAC [XGTACX_site3631],7
19,AATATATATTTATATTGTACATATATATATATTTCT [XGTACX_site2603],7.06
20,CCATTAAATACATACACACCCACACCCAAAAAAAAA [CACACA_site4633],7.35
21,AAAAAAAAAAATATAACACACAAAAAATTGTATCGA [CACACA_site1144],6.85
22,ATATAGTAAAATTATACACACATGAATTTTCCCATA [CACACA_site3113],6.96

row,Sequence,gcPBM binding intensity (ln)
1,ACAAAATTTACAAAATGTACATATTGTAGATATTGT [XGTACX_site7618],6.99
2,TTAATTAAATATTATACACACAAAAAAATAACTTTA [CACACA_site6197],6.9
3,TGTATTTAAAATGGTTGTACATAAATAAAAATAAAA [XGTACX_site7771],7.22
4,TATTGAAACGTATAGACACACATATGATATATATAT [CACACA_site3226],8.62
5,ATTTATTTATTTATATGTACTTATATATGTATTTTC [XGTACX_site6269],7.01
6,AAAGTGTTAACCTAATCTTTAGTTTTTAAACAATAT [CACACA_negctrl_site841],6.76
7,ATAATATTTTGAAACGGTACACTTTTAAAATACACT [XGTACX_site4423],7
8,AAAATAAGGAAAAAAAAAAAAAAAAAAAAAAAAAAG [CACACA_negctrl_site1291],7.14
9,AAAAAAAAAAAACATACACACAAATATGTACATACA [CACACA_site7807],7.12
10,TATATATTAATATATGCATGTACGATTATTATAATA [TGCATGCA_site446],7.23
11,AATAAAAATCCACAAGCACACAAATGTACTTATATA [CACACA_site8783],6.92
12,TAAATACAAAAATGTACACACATATAAATATTTTTA [CACACA_site7612],7
13,AACACTACATAAAACTGTACAATAGTATTTTATTAT [XGTACX_site996],6.83
14,ACAAGATGATGGAAATGTACATAAAAAGAATCATAT [XGTACX_site8682],7.08
15,TTTTTTTTTATATTTAGTACATATATATTATTATAT [XGTACX_site3334],6.97
16,CTTAGTGTATTTGAATGTACGCATAAATATAATTAT [XGTACX_site2830],7.42
17,ATTATTAAAATGATATGTACGCACATAATATACATA [XGTACX_site3236],7.06
18,TTTCAAAAGTAATACTGTACTTATTTTTATGATTTA [XGTACX_site4184],6.99
19,TTATACATAAATTTTGTACACACAAAAAAAAAAAAG [CACACA_site8374],7.29
20,GAATTTTTTTAATGTTGTACTTTTTTTTTTTTTTCT [XGTACX_site648],6.87
21,ACATATATATATATATATATATATATATTACATTTA [CACACA_negctrl_site627],7.93
22,ACATATTTTATTTTTTGTACACATATATTATTTTTT [XGTACX_site6528],7.28

row,Sequence,gcPBM binding intensity (ln)
1,TTTTTGTTAAACAGGGTGCTAATCTGAATTAATATT [GTGCAC_site9908],9.2
2,TTTGGTTATATTTAAAAAAGACTAATGAAAATTAAA [XGTACX_negctrl_site526],6.77
3,AAAAAAAAAAAAAATACACACATAAAATAAATAACA [CACACA_site439],7.23
4,AATTTACAAATATAATGTACATAATTATATATATAT [XGTACX_site278],8.79
5,ATATATATATATTACACACACACAAAAAAAATAAAG [CACACA_site118],8.64
6,CATACCATACATAAAACACACAAAATTTACAGAATA [CACACA_site7451],7.05
7,AATAGTAAAAATCACTGTACGTTTATTTTTAAAATG [XGTACX_site1035],6.83
8,CCATATACAACCATACGTACATATATATATATATAT [XGTACX_site8193],9.8
9,ATATTATTTATAGGGTGTACCTTATTATTATAAGAA [XGTACX_site7148],6.96
10,TAGAAAAACATTACGTGTACCAAACATCCTAGCAAC [XGTACX_site4888],7.19
11,TATAATATTATACATAGTACACATCACACATCGCAA [XGTACX_site4650],7.13
12,TATATACTTTTATGTACACACCTATAATATGGGTGA [CACACA_site5044],7.05
13,ATATCTTATGTTATCACACACACACGCACAAAACAG [CACACA_site6800],8.31
14,ATTTTTTTTATTTTTTATATAATTTTTTTATATTAT [CACACA_negctrl_site1521],6.92
15,TGTATTTATAAACATGCACACGTGGTTGTATTTATA [CACACA_site5762],7.91
16,ATTTGTTTACCTAAAAGTACAAATTTTTTATGTATA [XGTACX_site7689],6.93
17,TATCCCTTAGAATACACACCCATATGAGTGTGAACT [CACACA_site7398],7
18,TGTTTTGTTTTTTGGGGTACATGTTTTGTATTATAT [XGTACX_site7997],7.55
19,AAGGCAAGCACTTAAACATGCATATAATAATATCAT [TGCATGCA_site698],7.36
20,ATAATATATATATATGCATGTACATATTTATCTTTA [TGCATGCA_site32],7.05
21,ATGTATTAAAAAAATTGTACTATAAAATGTAACCGC [XGTACX_site8083],7.12
22,AAAAAAAAAAAAAACATACACACAAATATATACATA [CACACA_site4010],7.19

row,Sequence,gcPBM binding intensity (ln)
1,ATATATATATATATATGTACATATATATATGTATAT [XGTACX_site3959],9.72
2,ATATTATTTTAAAGTACACACATATATTAATATATA [CACACA_site2315],7.38
3,TATACATACAGACCCACACACAAAAAAAAAAAAAAA [CACACA_site6536],7.08
4,TAATAATAATTATATACACACATGTATATTATATTT [CACACA_site1501],6.92
5,ATTTAAATATATTATTGTACATATACCTAATAAGAA [XGTACX_site6655],7.26
6,ACTCCTATATAAATGAACCATATTCATAATATATAT [CACACA_negctrl_site1636],7.08
7,AAATGAAAGAATTAAAGTACATTTATATAATTTTAA [XGTACX_site3540],6.59
8,AAGAGAAAAACATACACACACAACAAAATATGTATA [CACACA_site2719],6.96
9,TGTATAATATATATATGTACTTATGTATAATATTAT [XGTACX_site4328],7.08
10,AAGATATCTAAGGAAATTAAACTACCAAAATATATA [TGCATGCA_negctrl_site338],6.8
11,TGCATAAAAGTAAAAACATGCATGCCGTGGTATCTT [TGCATGCA_site664],6.73
12,GACATATAAATATACACACATACGTAAGTATATTAA [CACACA_site1790],6.91
13,TTTTTATGGATATTTATATTATATTATGATTAAAAA [TGCATGCA_negctrl_site204],6.83
14,AATAATACAAAAGTTCAACAAAAAAAAAAAAAAAAT [CACACA_negctrl_site952],6.8
15,CTTTATAATATTTGTTGTACACAAATATAACATATT [XGTACX_site709],7.36
16,AATATATTTATAAGCACACACTAATAAACACAGACA [CACACA_site4377],7.09
17,AAATATATATATATATATATATATGTGTGTGTATAT [GTGCAC_negctrl_site1],7.94
18,GTACATAATTATTATGCACACATATTTTTATGTATT [CACACA_site8132],7.24
19,ATAGTATCTGGTAGCTGTACGAGTCGTAGAGAGTAG [XGTACX_site2546],7.55
20,TTATTATTTCTTAGTAGTACTATATAATTTTTTTTT [XGTACX_site1847],6.73
21,ATATATCTGTATGGCACACACGGATAAATATATATA [CACACA_site4668],7.26
22,TGTATTTAGAAACATACACACATATTAAGTTTACAT [CACACA_site5689],6.97
